Measured values from the supplement of paper PMC9446081.
Hit rate of the full screen: of about 39,000 compounds, about 220 (0.56%) showed activity. The list shows a part of the results.

tested on: Escherichia coli K-12 BW25113; test: relative growth (OD600 normalised to plate interquartile mean) (fraction); higher = less growth inhibition, active = 0.2 or less; settings: 50 µM; LB; incubation time: overnight (16-24 h)
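Also: static incubation at 37 °C against the wild-type strain, values averaged over two biological replicates.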

Compound	relative growth
NCCCn1c2c(c3ccccc31)CCCC2	inactive: 0.899
O=C(Nc1cc(C(=O)Nc2ccc(S(=O)(=O)O)c(S(=O)(=O)O)c2)cc(C(=O)Nc2ccc(S(=O)(=O)O)c(S(=O)(=O)O)c2)c1)Nc1cc(C(=O)Nc2ccc(S(=O)(=O)O)c(S(=O)(=O)O)c2)cc(C(=O)Nc2ccc(S(=O)(=O)O)c(S(=O)(=O)O)c2)c1	inactive: 1
CCN(CC)c1ncc(C#N)c(N)n1	inactive: 0.987
Cn1cc[nH]c1=S	inactive: 0.963
C[C@@H]1CN([C@H](C)CO)C(=O)Cc2cc(NS(=O)(=O)c3ccc(F)cc3)ccc2O[C@@H]1CN(C)Cc1ccncc1	inactive: 0.997
C[N+](C)(C)CCCC[C@@H]1NC(=O)[C@H]2C[C@@H](C(=O)NCc3ccc(F)cc3)[C@@H](c3ccc(O)cc3)N2C1=O	inactive: 0.881
Cc1ccc(S(=O)(=O)N(C)C[C@H]2OCCCC[C@@H](C)Oc3ccc(NC(=O)Nc4ccc(F)cc4)cc3C(=O)N([C@H](C)CO)C[C@@H]2C)cc1	inactive: 1.02
C[C@@H]1CN([C@H](C)CO)C(=O)c2cc(NC(=O)CCCN(C)C)ccc2O[C@H]1CN(C)Cc1ccc2c(c1)OCO2	inactive: 0.981
COc1ccc(NC(=O)Nc2ccc3c(c2)C(=O)N([C@@H](C)CO)C[C@H](C)[C@@H](CN(C)Cc2ccc(C(F)(F)F)cc2)OCCCC[C@H](C)O3)cc1	inactive: 0.939
Cc1noc(C)c1S(=O)(=O)Nc1ccc2c(c1)C(=O)N([C@H](C)CO)C[C@H](C)[C@@H](CN(C)S(C)(=O)=O)OCCCC[C@@H](C)O2	inactive: 0.974
NC(=O)N1C(=O)[C@H]2[C@H](C1=O)[C@H]1C=C(c3ccc(CO)cc3)[C@@H]2[C@@H](C2CC2)N1Cc1cc2c(cc1Br)OCO2	inactive: 1.04
C[C@@H]1CCCCO[C@H](CN(C)S(=O)(=O)c2ccc(Cl)cc2)[C@@H](C)CN([C@@H](C)CO)C(=O)c2cc(NC(=O)Cc3ccccc3)ccc2O1	inactive: 1.02
CCS(=O)(=O)NCC[C@H]1CC[C@H](NC(=O)Cc2ccccn2)[C@H](CO)O1	inactive: 1
O=C(C[C@@H]1C/C=C/C[C@H](Cc2ccccc2)C(=O)N[C@H](c2ccccc2)COC1=O)NCc1ccc(Cl)cc1	inactive: 1.03
C[C@@H]1CCCCO[C@H](CN(C)C(=O)Nc2ccc3c(c2)OCO3)[C@@H](C)CN([C@@H](C)CO)C(=O)c2cc(NC(=O)Cc3ccccc3)ccc2O1	inactive: 1.03
COc1ccc(S(=O)(=O)Nc2ccc3c(c2)CC(=O)N([C@H](C)CO)C[C@H](C)[C@@H](CN(C)S(=O)(=O)c2ccc(OC)cc2)O3)cc1	inactive: 0.997
C[C@@H]1CCCCO[C@H](CN(C)Cc2ccc(C(F)(F)F)cc2)[C@@H](C)CN([C@@H](C)CO)C(=O)c2cc(NC(=O)CCC(F)(F)F)ccc2O1	inactive: 0.955
Cc1ccc2c(c1)[C@](C)(O)CCS2	inactive: 1.01
COc1ccccc1CNC(=O)C[C@@H]1C[C@H]2c3cc(NC(=O)NC4CCCC4)ccc3O[C@H]2[C@H](CO)O1	inactive: 0.987
COc1ccccc1-c1ccc2c(c1)O[C@H](CN(C)CC1CCOCC1)[C@@H](C)CN([C@H](C)CO)S2(=O)=O	inactive: 1.04

Compound	relative growth
C[C@H]1CN([C@@H](C)CO)C(=O)Cc2cc(NC(=O)NC3CCCCC3)ccc2O[C@@H]1CN(C)S(=O)(=O)c1cn(C)cn1	inactive: 1
Cc1ccc(S(=O)(=O)N(C)C[C@@H]2OCCCC[C@@H](C)Oc3ccc(NC(=O)Cc4ccccc4)cc3C(=O)N([C@H](C)CO)C[C@@H]2C)cc1	inactive: 1
CN(C)CCCCCCNC(=O)[C@@H]1C[C@@H]2C(=O)N[C@@H](CCCC[N+](C)(C)C)C(=O)N2[C@@H]1c1ccc(O)cc1	inactive: 1.01
C[C@H](CO)N1C[C@H](C)[C@@H](CN(C)CC2CCOCC2)Oc2cc(C#Cc3cccnc3)ccc2S1(=O)=O	inactive: 1
C[C@H](CO)N1C[C@H](C)[C@@H](CN(C)C(=O)c2ccccc2F)Oc2cc(C#CCN(C)C)ccc2S1(=O)=O	inactive: 1.02
C[C@@H]1CN([C@@H](C)CO)C(=O)c2cccc(NC(=O)Nc3ccc(C(F)(F)F)cc3)c2O[C@H]1CN(C)S(=O)(=O)c1ccc(F)cc1	inactive: 0.795
C[C@@H]1CN([C@@H](C)CO)S(=O)(=O)c2ccc(C3=CCCC3)cc2O[C@H]1CN(C)C(=O)C1CCOCC1	inactive: 1.02
c1ccc(-c2cccs2)cc1	inactive: 0.964
O=C(C[C@@H]1CC[C@@H]2[C@H](COC[C@@H](O)CN2C(=O)Nc2ccc(F)cc2)O1)NCCCN1CCOCC1	inactive: 0.981
O=C(C[C@H]1C[C@@H]2c3cc(NS(=O)(=O)c4ccc(F)cc4)ccc3O[C@@H]2[C@@H](CO)O1)NCCN1CCCCC1	inactive: 1.02
C[C@H](CO)N1C[C@H](C)[C@@H](CN(C)S(=O)(=O)c2cn(C)cn2)Oc2ccc(NC(=O)C3CC3)cc2C1=O	inactive: 1.02
Cc1ccc(S(=O)(=O)N(C)C[C@@H]2OCCCC[C@@H](C)Oc3ccc(NC(=O)Nc4ccc5c(c4)OCO5)cc3C(=O)N([C@H](C)CO)C[C@@H]2C)cc1	inactive: 1
CCS(=O)(=O)N1C[C@]2(C1)CN([C@@H](CO)c1[nH]c3cc(ccc3c12)OC)S(=O)(=O)c1cccc(c1)OC	inactive: 1.02
C[C@@H]1CN([C@@H](C)CO)C(=O)c2cc(C#CCN(C)C)cnc2O[C@H]1CN(C)Cc1ccc(C(=O)O)cc1	inactive: 0.997
O=C(NO)c1ccc(C(=O)N/N=C/[C@H](O)[C@@H](O)[C@@H](O)[C@H](O)CO)cc1	inactive: 1.01
Cc1ccc(S(=O)(=O)N(C)C[C@@H]2OCCCC[C@@H](C)Oc3ccc(NC(=O)Nc4ccc(C(F)(F)F)cc4)cc3C(=O)N([C@H](C)CO)C[C@@H]2C)cc1	inactive: 1.02
COc1ccc(S(=O)(=O)N(C)C[C@H]2Oc3ncc(C#CC4(O)CCCC4)cc3C(=O)N([C@H](C)CO)C[C@@H]2C)cc1	inactive: 1.02
COCC(=O)N1C[C@@H](C)[C@@H](OC)CN(C)C(=O)c2cc(NC(=O)Nc3ccccc3)ccc2OC[C@@H]1C	inactive: 1.04
C[C@H]1CCCCO[C@H](CN(C)C(=O)CCC(F)(F)F)[C@@H](C)CN([C@@H](C)CO)C(=O)c2cc(NS(=O)(=O)c3ccccc3)ccc2O1	inactive: 0.973
C[C@H]1CN([C@@H](C)CO)C(=O)c2cc(NS(C)(=O)=O)ccc2O[C@@H]1CN(C)S(=O)(=O)c1ccccc1	inactive: 1

Compound	relative growth
CC(C)CN[C@H]1CCS(=O)(=O)C1	inactive: 1.07
CCOC(=O)c1cccc([C@@H]2CC(=O)N(C(=O)OCc3ccccc3)[C@@H]2C(=O)Nc2cccc3cccnc23)c1	inactive: 1.02
Cc1noc(C)c1NC(=O)Nc1ccc2c(c1)CC(=O)N([C@H](C)CO)C[C@H](C)[C@@H](CN(C)S(=O)(=O)c1ccccc1)O2	inactive: 1
C[C@@H]1CN([C@H](C)CO)C(=O)Cc2cc(NC(=O)C3CC3)ccc2O[C@H]1CN(C)Cc1ccc2c(c1)OCO2	inactive: 1.01
COc1ccc(CN(C)C[C@@H]2OCCCC[C@H](C)Oc3ccc(NS(=O)(=O)c4ccc(OC)cc4)cc3C(=O)N([C@H](C)CO)C[C@H]2C)cc1	inactive: 0.994
C[C@H](CO)N1C[C@H](C)[C@H](CN(C)C(=O)Nc2ccc(F)cc2)Oc2cc(C#CC3(O)CCCC3)ccc2S1(=O)=O	inactive: 1.01
COC(=O)C(N)CS.Cl (stereo not given)	inactive: 0.994
CC(C)NC(=O)N(C)C[C@@H]1Oc2ccc(NS(=O)(=O)c3ccc(F)cc3)cc2C(=O)N([C@@H](C)CO)C[C@@H]1C	inactive: 0.975
Cc1noc(C)c1NC(=O)Nc1ccc2c(c1)CC(=O)N([C@@H](C)CO)C[C@@H](C)[C@H](CN(C)Cc1ccc(Cl)c(Cl)c1)O2	inactive: 1.01
CN1CCN(C(=O)C[C@@H]2CC[C@@H]3[C@H](COc4ccc(NC(=O)c5ccc(F)c(F)c5)cc4C(=O)N3C)O2)CC1	inactive: 0.986
C[C@H]1CN([C@@H](C)CO)C(=O)Cc2cc(NC(=O)CCCCCC(=O)Nc3ccccc3N)ccc2O[C@@H]1CN(C)Cc1ccccc1	inactive: 0.966
C[C@@H](N)C12CC3CC(CC(C3)C1)C2	inactive: 0.971
Cc1cc(C(=O)Nc2cccc3c2O[C@H](CN(C)C(=O)NC(C)C)[C@@H](C)CN([C@@H](C)CO)C3=O)n(C)n1	inactive: 1.01
C[C@@H]1CCCCO[C@H](CN(C)CC2CC2)[C@H](C)CN([C@@H](C)CO)C(=O)c2cc(NC(=O)Nc3ccc(C(F)(F)F)cc3)ccc2O1	inactive: 0.856
C[C@@H]1CN([C@@H](C)CO)S(=O)(=O)c2ccc(C#CCN(C)C)cc2O[C@@H]1CN(C)C(=O)c1ccccc1F	inactive: 0.998
CC[C@@H](N)c1ncnn1CC	inactive: 1
CO[C@@H]1CN(C)C(=O)c2ccc(NS(C)(=O)=O)cc2OC[C@H](C)N(C(=O)C2CCOCC2)C[C@@H]1C	inactive: 0.973
C[C@H](O)C#Cc1ccc2c(c1)O[C@H](CN(C)C(=O)Nc1ccccc1)[C@@H](C)CN([C@H](C)CO)S2(=O)=O	inactive: 0.994
CN(C)CCN(Cc1ccccc1)c1ccccn1.O=C(O)CC(O)(CC(=O)O)C(=O)O	inactive: 0.763
COC(=O)C1=C(C)NC(C)=C(C(=O)OCCCN2CCC(c3ccccc3)(c3ccccc3)CC2)[C@H]1c1cccc([N+](=O)[O-])c1	inactive: 1.02
